From PubChem BioAssay (Tox21)
Records with an inconclusive call do not appear. Unless noted, calls follow the shape of the dose curve; as a rule, active = well fitted curve in the direction sought with a large enough effect in the repeat runs; inconclusive = weak or mixed curves; inactive = no such curve, though single readings can be large; an effect the other way counts as inactive or inconclusive. A structure can be active in one record and inactive in another. Certain results were filed several times, with different values. This is not the full list of results. An entry can have further records. Values given together are repeated measurements in other runs, samples, wells, individuals or studies. Records carry a tag for their origin. Letters hold for one entry only.

What was measured:
[1] = qHTS assay to identify small molecule agonists of the constitutive androstane receptor (CAR) signaling pathway - cell viability counter screen (AID 1224836); also: nearly all actives have a fitted effect of over 45% in size
Outline: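 Compound titrations (15 concentrations) went onto HepG2-CYP2B6-hCAR cells 4 h after seeding, alongside PK11195 at a final 0.75 uM; a 23 h, 37 C/5% CO2 incubation preceded CellTiter-Fluor viability measurement.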

[2] = qHTS assay to identify small molecule antagonists of the constitutive androstane receptor (CAR) signaling pathway - cell viability counter screen (AID 1224837); also: nearly all actives have a fitted effect of over 45% in size
Outline: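 To flag cytotoxic false antagonists, HepG2 hCAR/CYP2B6-2.2kb cells were treated 23 hr with 15-concentration compound series and 50 nM CITCO at 37 C/5% CO2; CellTiter-Fluor fluorescence was the measured end point.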

[3] = qHTS assay for small molecules that induce genotoxicity in human embryonic kidney cells expressing luciferase-tagged ATAD5 - cell viability (AID 651634; calls by dose curve; also: nearly all actives have a fitted effect of over 25% in size)
Outline: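 15.5 hr compound or vehicle exposure of HEK293T cells expressing luciferase-tagged ATAD5 at 37C; live-cell protease activity is read by fluorescence after 30 min of CellTiter-Fluor.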

[4] = qHTS assay to identify small molecule antagonists of the thyroid receptor (TR) signaling pathway (AID 743065); also: nearly all actives have a fitted effect of over 55% in size
Outline: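 GH3.TRE-Luc rat pituitary cells carrying two TR response elements driving luciferase were plated for 4 h, given compound plus 1 nM T3 (final), and incubated 23.5 h at 37 C. ONE-Glo luminescence measured reporter inhibition; CellTiter-Fluor fluorescence tracked cytotoxicity.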

[5] = qHTS assay to identify small molecule antagonists of the estrogen receptor alpha (ER-alpha) signaling pathway using the BG1 cell line in the presence of 0.1 nM 17-beta-estradiol - cell viability counter screen (AID 1259241); also: nearly all actives have a fitted effect of over 40% in size
Outline: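 CellTiter-Fluor read (30 min, 37C) on ER-alpha/ERE-luc VM7Luc4E2 cells; 22 hr compound treatment; agonist 0.1 nM E2 final; same-well multiplex.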

[6] = qHTS assay to identify small molecule agonists of the sonic hedgehog signaling (Shh) pathway (AID 1259368; calls by dose curve; also: nearly all actives have a fitted effect of over 15% in size)
Outline: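 Hedgehog pathway agonism scored by increased firefly luciferase luminescence in 3T3Gli1-Luc cells treated 24 hr at 37 C; detection used a 30 min room-temperature reagent incubation.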

[7] = qHTS assay to identify small molecule antagonists of the TGF-beta/Smad signaling pathway - cell viability counter screen (AID 1346824); also: nearly all actives have a fitted effect of over 50% in size
Outline: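 SBE-bla HEK 293T cells were plated overnight at 37 C, then given compounds in DMSO plus TGF-beta1 (added as 0.25 ng/mL solution) for 5 hr. After the bla read, CellTiter-Glo was added to the same wells and luminescence read after 30 min at room temperature.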

[8] = qHTS assay to identify small molecule antagonists of the peroxisome proliferator-activated receptor gamma (PPARg) signaling pathway - cell viability counter screen (AID 743194); also: nearly all actives have a fitted effect of over 55% in size
Outline: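 PPARg-UAS-bla HEK293H cells were plated, rested 5 h at 37 C, then treated with compounds plus rosiglitazone (50 nM final) for 17 h at 37 C; viability was then read by CellTiter-Glo luminescence after 30 min at room temperature.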

[9] = qHTS assay to identify small molecule antagonists of the androgen receptor (AR) signaling pathway using the MDA cell line - cell viability counter screen (AID 743041; also: nearly all actives have a fitted effect of over 45% in size)
Outline: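 qHTS viability read-out; MDA-kb2 AR-luc; R1881-stimulated; 16 h exposure at 37C, 0% CO2; CellTiter-Fluor, 30 min; fluorescence intensity.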

[10] = A CellTox Green Cytotoxicity Assay to monitor cytotoxicity in HEK293 cells - 16 hour (AID 1224888); also: nearly all actives have a fitted effect of over 35% in size
Outline: (§1)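 Tox21 screen in HEK293: membrane-impermeant cyanine dye fluoresces on binding dead-cell DNA; compound pinned 5 h post-seeding, plates held at 37 C, signal read repeatedly through 40 h.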

[11] = qHTS assay to identify small molecule antagonists of the glucocorticoid receptor (GR) signaling pathway - cell viability counter screen (AID 720693); also: nearly all actives have a fitted effect of over 55% in size
[12] = A CellTox Green Cytotoxicity Assay to monitor cytotoxicity in HEK293 cells - 24 hour (AID 1224875); also: nearly all actives have a fitted effect of over 45% in size
Outline: as §1
Potency is read from the fitted curve at half-maximal effect.

Question: Which Potency [1] does the source give for `CCCCCCCCCCCC[N+](C)(C)CCOc1ccccc1` here?
Answer: active: 54.5 µM [sample A] and inactive [sample B]

Question: What about the Potency [2] of the same compound?
Answer: active: 61.1 µM [sample A] and inactive [sample B]

Question: With `CN1C[C@H](C(=O)N[C@]2(C)O[C@@]3(O)[C@@H]4CCCN4C(=O)[C@H](Cc4ccccc4)N3C2=O)C=C2c3cccc4[nH]cc(c34)C[C@H]21` as the compound, how does the Potency [3] read?
Answer: inactive [sample A] and active: 22.6 µM [sample B]

Question: And the Potency [4]?
Answer: active: 27.4 µM [sample A] and inactive [sample B]

Question: What about the Potency [5] of the same compound?
Answer: active: 19.4 µM [sample A] and inactive [sample B]

Question: What does the source list for `CC(C)(C)CC(C)(C)c1ccc(O)cc1`?
Answer: Potency [6]: active: 3.44 µM [sample A] and inactive [sample B]; Potency [7]: active: 49 µM [sample A] and inactive [sample B]

Question: For `CCCCNC(=O)OCC#CI`, which Potency [3] is on record?
Answer: active: 54.2 µM [sample A] and inactive [sample B]

Question: And the Potency [5]?
Answer: active: 60.8 µM [sample A] and inactive [sample B]

Question: For `COP(=O)(OC)OC(Br)C(Cl)(Cl)Br` (stereo not drawn), which Potency [8] is on record?
Answer: active: 49 µM [sample A] and inactive [sample B]

Question: For `CCC(C)(C)c1ccc(O)c(C(C)(C)CC)c1`, which Potency [9] is on record?
Answer: inactive [sample A] and active: 54.5 µM [sample B]

Question: And the Potency [10]?
Answer: active: 43.2 µM [sample A] and inactive [sample B]

Question: With `[Cl-].[Cl-].[Hg+2]` as the compound, how does the Potency [11] read?
Answer: inactive [sample A] and active: 24.4 µM [sample B] and inactive [sample C]

Question: With `c1ccc2c(c1)sc1ccccc12` as the compound, how does the Potency [8] read?
Answer: inactive [sample A] and active: 29.8 µM [sample B]

Question: For `O=C1c2ccccc2C(=O)N1SC(Cl)(Cl)Cl`, which Potency [12] is on record?
Answer: active: 43 µM [sample A] and inactive [sample B]

Question: For `Nc1ccccc1C(=O)OCCc1ccccc1`, which Potency [12] is on record?
Answer: inactive [sample A] and active: 21.9 µM [sample B]

Question: What about the Potency [10] of the same compound?
Answer: inactive [sample A] and active: 24.5 µM [sample B]

Question: And the Potency [6]?
Answer: inactive [sample A] and active: 172 nM [sample B]
